Results taken from paper PMC6305486, “Structural Insights into the FtsQ/FtsB/FtsL Complex, a Key Component of the Divisome” (Scientific Reports, 2018).

T1: FtsB_(25–103) (E. coli, UniProt P0A6S5 25-103)
T1 construct: In the crystal only residues 61–95 were seen; the authors think that residues 25–60 may have been cleaved off during purification and crystallisation; also called C-terminal fragment of FtsB; not shown: GST, N-terminal, cleaved
T1 sequence (looked up): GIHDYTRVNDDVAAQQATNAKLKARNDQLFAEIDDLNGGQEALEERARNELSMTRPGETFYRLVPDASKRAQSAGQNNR


Molecular target: T1, FtsB_(25–103)
Test: SEC; analytical gel filtration, Superdex 200 10/300 GL, buffer B (20 mM Tris-HCl pH 8.0, 200 mM NaCl), 0.5 mL/min; high concentrations (101–370 μM); apparent Stokes radius compared with radii calculated from models
Details: both partners purified

Row | stoichiometry N | Binder
1 | 1 FtsQ:FtsB ratio (2:2) | FtsQ_([…]) F87A (domain or fragment, also called FtsQB F87A mutant) not shown
2 | 1 FtsQ:FtsB ratio (2:2) | FtsQ_([…]) L57R (domain or fragment, also called FtsQB L57R mutant) not shown
